Experimental data from patent publication US20150197559A1.

Target: BoNT/B2 (Clostridium botulinum)
Test: flow cytometry, yeast-displayed scFv, soluble toxin

B1: B6.1 scFv (scFv)
scFv: QVQLVQSGAEVKKPGESLVISCKASGDKDTFTSFWIAWVRQMPGKGLEWMGIIYAGDSDTRYSPSFQGHVNISVDRSTNTAYLQWSSLKASDTAMYYCARHDSRYKYFYFGMDVWGQGTTVTVSSGGGGSGGGGSGGGGS[gap - about 100 residues]PYTFGQGTKLEIK
Kd: 0.394 nM
